The list shows a part of the results.
T1: UNK ZnF1-6 (called full-length) (human, UniProt Q9C0B0 30-357)
T1 sequence: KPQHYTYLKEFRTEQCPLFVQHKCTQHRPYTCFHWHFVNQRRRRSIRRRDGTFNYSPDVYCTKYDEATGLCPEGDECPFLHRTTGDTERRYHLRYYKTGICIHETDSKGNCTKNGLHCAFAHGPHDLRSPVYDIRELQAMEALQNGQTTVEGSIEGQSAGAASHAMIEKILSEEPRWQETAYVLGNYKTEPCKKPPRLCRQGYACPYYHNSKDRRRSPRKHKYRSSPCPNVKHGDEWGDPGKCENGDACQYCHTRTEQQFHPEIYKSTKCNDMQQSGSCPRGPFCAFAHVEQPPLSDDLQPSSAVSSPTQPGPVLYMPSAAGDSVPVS

B1: chr20:3649766:3649867:+|3pUTR|ENSG00000088812|unk|total|mutant (ssRNA)
RNA: GGGAGUUCUACAGUCCGACGAUCAAGUUCAAAGACUAACCUGCCGCAAUCAGACUUUCCAAAAGGGGGUUCUCCAUUUUUUGCCGUUUUGUCUAAAUUUUUAAUGACCAUUUCCUGGAAUCAGUUUAUUAUACUGAAAACUGGCAACAGAGGAUUGAGCAUCA
B2: chr3:97755980:97756081:+|3pUTR|ENSG00000080224|unk|total|mutant (ssRNA)
RNA: GGGAGUUCUACAGUCCGACGAUCUAAUUAAAAAUCUCUUUCCUACCUUCCGUAAUUUGCCGGAUGAACUGUAUGCAUUCCGACCGAAAUUGCUUUUGUUAAAUUUACAUUUAAACACAUCUUCAUUCACUCCGAGAAGCCAUACAACAGAGGAUUGAGCAUCA
B3: chr1:6522505:6522606:-|3pUTR|ENSG00000162408|msi1|FALSE|unique (ssRNA)
RNA: GGGAGUUCUACAGUCCGACGAUCCUGGGAUUACAGGCGUGAGCCACUGCGCCUGGCCUGAAGCUAUUCUUUACAAAAGCUCUUAGUUUUUGUUUGUUUGUUUGUUUUUUUCUUUUGCGACGGACUCUCUGUCGCCAAGGCUGGCAACAGAGGAUUGAGCAUCA
B4: chr3:122573770:122573871:+|3pUTR|ENSG00000163840|msi1|FALSE|unique (ssRNA)
RNA: GGGAGUUCUACAGUCCGACGAUCUAUUGGGUGCACUUGCCCUGCCACAGUAAUGCUAUAUAUUUCUGAGCAUUGUUUUUCUCUAGAUAAUUUUAUAUUUUUGAGUAUACCCCACUUCCAAGUGUUUUUUGUUUUGUUUUGCUUCAACAGAGGAUUGAGCAUCA
B5: chr20:64083387:64083705:-|CDS|ENSG00000171695|control|control|control (ssRNA)
RNA: GGGAGUUCUACAGUCCGACGAUCCUGAAGCCCGCGCGGAUCCCGGACCCCCUGGACCGCCAAGAGGUGCAGACAAGCCCCGGUAGGGGCGGGGAAAGGGGAGGGGCCCUGCCCGCCUCCGCACACGCCGGACCCCAGCCUCUCCAACAGAGGAUUGAGCAUCA
B6: ENSG00000130703:stop:overlap|stop_codon|ENSG00000130703|stop_codon|NA|stop_codon (ssRNA)
RNA: GGGAGUUCUACAGUCCGACGAUCCGUGUGGAUUAUUUGGAAAAGAACUUCACAAGGUGGAAGGACACAUUCAAGACAAAAAGUAGGUCCUUGCCAAGUGUUCAUGGGGCACCACUACAGCCUGUGUGUCCACGUUAGAAGGGCCAACAGAGGAUUGAGCAUCA

Biological target: T1, UNK ZnF1-6 (called full-length)
Assay: nsRBNS (natural sequence RNA bind-n-seq); RBNS binding buffer (assumed for nsRBNS): 25 mM Tris pH 7.5, 150 mM KCl, 3 mM MgCl2, 0.01% Triton X-100, 500 ug/ml BSA, 20 U/ml SUPERase-In, 4 C; UNK is unkempt and MSI1 is Musashi-1; names of the RNAs are library labels; protein concentration not given here; high values mean tight binding

Row | Binder | binding signal
1 | B1 | 0.554 enrichment R
2 | B2 | 0.569 enrichment R
3 | B3 | 0.662 enrichment R
4 | B4 | 5.09 enrichment R
5 | B5 | 1.98 enrichment R
6 | B6 | 0.872 enrichment R
